In the RNAGym collection of RNA variant scans (doi:10.1073/pnas.2313332121):
This sample is rich in variants without activity.

B1: TPR 5TU (parent)
chain: GGAUCUUCUCGAUCUAACAAAAAAGACAAAUCUGCCACAAAGCUUGAGAGCAUCUUCGGAUGCAGAGGCGGCAGCCUUCGGUGGCGCGAUAGCGCCAACGUUCUCAACUAUGACACGCAAAACGCGUGCUCCGUUGAAUGGAGUUUAUCAUG

Variants of: B1
Assay: polymerase ribozyme fitness, log enrichment relative to wild type (log ratio); higher = more active; in vitro selection for triplet polymerase activity
Outline: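 Fitness measures genotype enrichment against wild-type enrichment on a logarithmic scale, with inverse-variance-weighted averaging of replicates. The logarithm is base 2, and genotypes were kept only with ≥10 input reads and ≥1 read per output in Illumina sequencing. The sequenced libraries came from one triplicate in vitro selection round, including frozen incubation at −7 °C, of PCR-built, transcribed mutant libraries of each subunit of a heterodimeric triplet polymerase ribozyme.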

Polymerase ribozyme fitness (log ratio), -1.69:
A26C C87U

Polymerase ribozyme fitness (log ratio), -1.84:
A24U C93U U104G

Polymerase ribozyme fitness (log ratio), -3.59:
A24U G83U G136A U146C A150G

Polymerase ribozyme fitness (log ratio), -1.73:
G25U

Polymerase ribozyme fitness (log ratio), -2.23:
G25U G58U A97C

Polymerase ribozyme fitness (log ratio), -2.19:
A24U C35U C75U

Polymerase ribozyme fitness (log ratio), -4.11:
G25C G48A C87U A142G

Polymerase ribozyme fitness (log ratio), -2.67:
G25C C105U U144C

Polymerase ribozyme fitness (log ratio), -2.52:
G25C

Polymerase ribozyme fitness (log ratio), -3.99:
A26G A30C G59A G74A G84U
A24U A37U G42C C75G

Polymerase ribozyme fitness (log ratio), ≤ -4.2:
A24U G59C C63U G84C C87G C96A A106U A137U
A26C G46C C87G C149A
A26G A37G A73G C85U C93G
A26C C87G A98C
G25C A39U G86U
G25U C43U U53A C76U C93U A120U
G25C A26G A52U C96U G100A G124A
A26C C27G U33G U44A U45A U55A C85U C114A G133C
G25U A49G A52U U90G C125G A142U G143C
A26C G48C A52C C93U U109C A110U A115U A150U
A26C A37U C79U A106U G143C U146A U148C
A24U C76G G81C A91G C96A C116G G117U U130G C131U U148G
G25C C75G C103G A122G C129G G140A
A24U U56G C57G C87G G133A
A24U C35U A60C G84A A91U U101C A106C C132G
G25U A49C C51U U53A C85G G100C A120G G124A C129A A137U
G25A U31A G46A A91U C93U G112A A138G
A24U U56A C72G C96U A122C A137G
G25U C93G
A24U C76A G84U C105A A138U U146G
A26G A66C A73U A89U C125U
A26C G42U C72U G94A A98C G100A C125A U139G
A26G A40G U55A G92A C123G C125U G126A U127C
A24U A47G A49C G50A A52G U56A G92U U148G G152U
A26C U101G G133C U148C G152A
A24U A73G C87A G136C
A24U A41U A107G
A24U G71A C75U C85A G141U U144A
A24U A41C C96A C108U G136U
A24U C63G U77C U144A
A24U C32G G59A A66G C93U
A24U A37G G50C C72G G92U
G25C A26G G59U C75G C76U
A26C U61A A64U C85A A110C G124A G136A G140U
G25U U45G U56A G86A U148G
A24U C43G U77G C96G A97G C103U G133U G152U
G25U C54A C87U G88A U102G C116U G140C
G25U A39C A47U G74A C75A
G25C G50C A91C A106C
G25C C69G C96A C99U C118A
G25C A60G C93U
A26C U78C C105A A115G U134A
A26C C54A C76U G80C G84A
G25U A29U U55A C95A U104G
A24U C38U U56A G83C A91C G143C
G25U A37C A41C C116A
A26G A60C U61G A64C G65A U90G C96A A106G A110U A150U
A26C A30G G46C C51A G86A U127A
G25A C27G A30C C32G G68A C87A A107U
G25U A29U G62U C85G A142C
A24U G59A G88U C99G C118A U135A
G25C A40U C87U C93A C95U
G25U A41U G94U A138C U139C G140A A142C
A24U A52C G58U G71U C79A G88U U134C U148G
A26G A30G A52U C87U A89G U102A U139C
A24U C76U C96A A115U A142C
A24U A40U A66G C79A C85U G117C
G25C G50U C54U G65A G80C G83U C85G A137U U146C
A24U G46U G70A C87U C105U
A26C C51U A66G U77A C149G
G25A A28G G88C C99U U101G A113G C116U C118G A121C A142C
G25U C43U U45C A47G G70C C96A
G25U U61A C85U U148A
A24U A49C
A24U A52G C54G C87G C99A G126C
G25U C75G C85A C95U U109C G140C U146A
A26C C36G C116A U148G
A24U U55A U151G
G25U U90G
G25U C43A U56A C75G G136C
A24U C51A U53A A89U C93G C96G C123A
G25A G68A U77A C87G C108A A119C A122U C125G G143C
G25A C35G C79G C95U A150U
A26G A73U C95U G133U
A26C A110G
G25U A26U A41U C43U G68A G94U A106C A142G
A26C C32G G34C U44A A107G C131U U139C U145C
G25A U44C G58A C96A C116G A119G A142C
G25U A41G C93G A113U A150U
A26C A39U C51U C54A U61G
A24U U33G U56A A91G C103A
G25U A37C A40C U56G C76U C87G C96A C129G U148C C149U
A24U G67A G68A A91U C96G A98G C105U A113G C114G
A26C A41G A47C C69G G83A C93U G124U
G25C C36G G68U C95G C129A A142C
G25U U33C C35A U55A C96G C99U A106G A150U
G25U A28C A29G C95A C149G
G25C C27U U56A A73G C87G A97G C125A
A24U A39U G86A A97U C99G
A24U C75U G83A C95U A110G C125U A150C
G25C G67A
G25C C27U C51G G83A A106U C123U
A26C G83C A97U C123U G126C U130A
G25U G59C U61G A113U
A26C C85A A89G C96U U135C A137U
A24U C38G C85U C87U A120C C132G
A26G A30G U45A U77G
G25U A26G G68C A107G U135C
G25C G83A G92C A106U
A26G A137U
A24U U31G G48A U55A G83A A120G A121C
G25U C43U G71U G88U G126C G140C
G25C C35A G68A
G25C A28G G48A G83C U127C A142C
A26C A41U C43A G94C U101C
G25U U44A U55A C93U G126U
G25U U45A G48U G74A C93U C114U
A26C C27A U55G
A24U G50C C57U C79G C118G U148C
G25C C51U G68A G88U U135C U145C
G25C G50C
G25U C79U G94U C95A G143A
A24U G25U A60C G62A C85A C99G C103A
A24U C38G G71A A91G C93U C99U
G25C C54A C76A U77G C95U G100U
A26C A39U G83A G94C G136U G140U C149A
G25C U77A A142U
A26C A107U
A24U U90A C103A
A24U A60G C79G C96G U109C
A26C C27U A64U C75A C79G A147G C149G
A24U A60U A91C A119C
A24U C38A A49U C72A G83A A91G C96A G141A
G25A G50U U77C C87U
A24U U90G U102A
A24U G58U G71A G81A G88A
G25U A49C C85G A97G
G25U U31C G84U C108A
A26C C72A C116U U139C
G25C C38U A89U U104G G133C
A24U U56A A73G C131G
G25U C36U A49C G100A A106G G140U G152A
G25U A41U C87G
A24U A52G A66U C79U G86U A138U C149A
A26G A49C C99G U134C
A26C C35A G42C U56A G58U U61A G84A A122G C125A
G25U U44A U55A U139A U144A
A26C U44C U61G C93U U130A C132G
A26G A29U U82C C99U G100C U104A G117C
G25U A49G U56C G83A C87G G136A
A26G A47G A91U C95G C99G A106C
G25U G71A G92A A97G C103G G141U
A26C C75U G92C G141C
G25U G84U G94A A121U A147G U148G
A24U A39U A66C G83A A113U G152A
A24U C57G C72U C129U U135A U144C
G25C A30C A60U U102G A106G A121U G128U
G25U C93A A147G
G25C U61A C85G U111G C114A
A24U G46A G88C C105U G136A

Polymerase ribozyme fitness (log ratio), -3.39:
G25U U55G A73G A120C C123U

Polymerase ribozyme fitness (log ratio), -3.84:
A26C G86A C99U G141C

Polymerase ribozyme fitness (log ratio), -2.14:
A24U U148C

Polymerase ribozyme fitness (log ratio), -3:
A24U U45A

Polymerase ribozyme fitness (log ratio), -3.05:
A24U A113C

Polymerase ribozyme fitness (log ratio), -1.62:
G25A
